# The list shows a part of the results.
# B1: B1567 (Bifidobacterium sp) (protein)
# chain: MKFTTAKKAVALTGAVAMLVSVAACGSDSGKSSQPAQDSDVKEITVWAWEPSLTQVAKDFEKETGIKVDLKNVGTNTKEYTQLDNAIEAGSGAPDVAQVEYYAVPQYAIKGNLLDITDKTSGYKDFYTPGPWASVQFAGKVYGLPMDSGPMAFFYNKEVFDKAGVDAEQIKTWDQYYDAAKKIHALGDNYYITSDTGDAGFFDSMTWLAGAKPFQTSSDGSEVTVNLTEDKGVKTFTDFWQKLLDEGLLDTKTAGWSEDWFKGMVDGTIASLFTGAWMPANLANSAADGAGKWRVTQMPTADGSTTNSENGGSSLAVLASTKKADAAYQFIEYANHGAGVATRVAGGAFPADKASLEKDSFKNATTVKNADGQDVDYFGGQKYNEVLAQAAENVSSGYQFLPFEVKARTIFGDYFGKSYTGDQKLSDGVAAWQKALQDYGKDQGFTVK
# Columns and labels:
# Assay in all cases: glycan array binding signal (z-score within array); higher = stronger binding
# Conditions in all cases: glycan notation: IUPAC condensed, linker removed
# [1] = biological target: Gal(b1-4)GlcNAc(b1-6)GalNAc
# Procedure, shortened: (§1)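 The binding signal is a Z-score computed within each array and averaged over linkers. Arrays of the same protein sequence at different concentrations or buffers were also averaged together. Data originate from 3228 arrays in the Consortium for Functional Glycomics database, kept only where the protein sequence was available.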
# [2] = biological target: Gal(b1-4)GlcNAc(b1-6)[Gal(b1-3)]GalNAc
# Procedure, shortened: as §1
# [3] = biological target: Gal(b1-4)GlcNAc(b1-6)[Gal(b1-4)GlcNAc(b1-3)]GalNAc
# Procedure, shortened: as §1
# Gal(b1-4)GlcNAc6P = biological target: Gal(b1-4)GlcNAc6P
# Procedure, shortened: as §1
# Gal(b1-6)Gal = biological target: Gal(b1-6)Gal
# Procedure, shortened: as §1
# Gal3S(b1-3)GalNAc = biological target: Gal3S(b1-3)GalNAc
# Procedure, shortened: as §1
# Gal3S(b1-3)GlcNAc = biological target: Gal3S(b1-3)GlcNAc
# Procedure, shortened: as §1
# [4] = biological target: Gal3S(b1-3)[Fuc(a1-4)]GlcNAc
# Procedure, shortened: as §1
# Gal3S(b1-4)Glc = biological target: Gal3S(b1-4)Glc
# Procedure, shortened: as §1
# Gal3S(b1-4)Glc6S = biological target: Gal3S(b1-4)Glc6S
# Procedure, shortened: as §1
# Gal3S(b1-4)GlcNAc = biological target: Gal3S(b1-4)GlcNAc
# Procedure, shortened: as §1
# [5] = biological target: Gal3S(b1-4)[Fuc(a1-3)]Glc6S
# Procedure, shortened: as §1
# [6] = biological target: Gal3S(b1-4)[Fuc(a1-3)]GlcNAc
# Procedure, shortened: as §1
# [7] = biological target: Gal3S(b1-4)[Fuc(a1-3)]GlcNAc6S
# Procedure, shortened: as §1
# Gal3S4S(b1-4)GlcNAc = biological target: Gal3S4S(b1-4)GlcNAc
# Procedure, shortened: as §1
# Gal3S6S(b1-4)GlcNAc = biological target: Gal3S6S(b1-4)GlcNAc
# Procedure, shortened: as §1
# Gal3S6S(b1-4)GlcNAc6S = biological target: Gal3S6S(b1-4)GlcNAc6S
# Procedure, shortened: as §1
# Gal4S(b1-4)GlcNAc = biological target: Gal4S(b1-4)GlcNAc
# Procedure, shortened: as §1
# Gal4S6S(b1-4)GlcNAc = biological target: Gal4S6S(b1-4)GlcNAc
# Procedure, shortened: as §1
# Gal6P(b1-4)GlcNAc = biological target: Gal6P(b1-4)GlcNAc
# Procedure, shortened: as §1
# Gal6S(b1-3)GlcNAc = biological target: Gal6S(b1-3)GlcNAc
# Procedure, shortened: as §1
# Gal6S(b1-3)GlcNAc6S = biological target: Gal6S(b1-3)GlcNAc6S
# Procedure, shortened: as §1
# Gal6S(b1-4)Glc = biological target: Gal6S(b1-4)Glc
# Procedure, shortened: as §1
# Gal6S(b1-4)Glc6S = biological target: Gal6S(b1-4)Glc6S
# Procedure, shortened: as §1
# Gal6S(b1-4)GlcNAc = biological target: Gal6S(b1-4)GlcNAc
# Procedure, shortened: as §1
# Gal6S(b1-4)GlcNAc6S = biological target: Gal6S(b1-4)GlcNAc6S
# Procedure, shortened: as §1
# GalNAc(a1-3)Gal = biological target: GalNAc(a1-3)Gal
# Procedure, shortened: as §1
# GalNAc(a1-3)GalNAc = biological target: GalNAc(a1-3)GalNAc
# Procedure, shortened: as §1
# [8] = biological target: GalNAc(a1-3)GalNAc(b1-3)Gal(a1-4)Gal(b1-4)Glc
# Procedure, shortened: as §1
# [9] = biological target: GalNAc(a1-3)GalNAc(b1-3)Gal(a1-4)Gal(b1-4)GlcNAc
# Procedure, shortened: as §1
# GalNAc(b1-3)Gal = biological target: GalNAc(b1-3)Gal
# Procedure, shortened: as §1
# [10] = biological target: GalNAc(b1-3)Gal(a1-4)Gal(b1-4)GlcNAc
# Procedure, shortened: as §1
# [11] = biological target: GalNAc(b1-3)Gal(a1-4)Gal(b1-4)GlcNAc(b1-3)Gal(b1-4)Glc
# Procedure, shortened: as §1
# [12] = biological target: GalNAc(b1-3)Gal(a1-6)Gal(b1-4)Glc
# Procedure, shortened: as §1
# GalNAc(b1-3)GalNAc = biological target: GalNAc(b1-3)GalNAc
# Procedure, shortened: as §1
# GalNAc(b1-3)GlcNAc = biological target: GalNAc(b1-3)GlcNAc
# Procedure, shortened: as §1
# GalNAc(b1-4)Gal(b1-4)Glc = biological target: GalNAc(b1-4)Gal(b1-4)Glc
# Procedure, shortened: as §1
# GalNAc(b1-4)GlcNAc = biological target: GalNAc(b1-4)GlcNAc
# Procedure, shortened: as §1
binder,measurement,setting,value
B1,glycan array binding signal (z-score),[1],-0.047
same,glycan array binding signal (z-score),[2],-0.103
same,glycan array binding signal (z-score),[3],-0.086
same,glycan array binding signal (z-score),Gal(b1-4)GlcNAc6P,-0.051
same,glycan array binding signal (z-score),Gal(b1-6)Gal,11
same,glycan array binding signal (z-score),Gal3S(b1-3)GalNAc,-0.155
same,glycan array binding signal (z-score),Gal3S(b1-3)GlcNAc,-0.098
same,glycan array binding signal (z-score),[4],-0.028
same,glycan array binding signal (z-score),Gal3S(b1-4)Glc,-0.135
same,glycan array binding signal (z-score),Gal3S(b1-4)Glc6S,-0.095
same,glycan array binding signal (z-score),Gal3S(b1-4)GlcNAc,-0.061
same,glycan array binding signal (z-score),[5],-0.102
same,glycan array binding signal (z-score),[6],-0.115
same,glycan array binding signal (z-score),[7],-0.109
same,glycan array binding signal (z-score),Gal3S4S(b1-4)GlcNAc,-0.102
same,glycan array binding signal (z-score),Gal3S6S(b1-4)GlcNAc,-0.134
same,glycan array binding signal (z-score),Gal3S6S(b1-4)GlcNAc6S,-0.052
same,glycan array binding signal (z-score),Gal4S(b1-4)GlcNAc,-0.071
same,glycan array binding signal (z-score),Gal4S6S(b1-4)GlcNAc,-0.166
same,glycan array binding signal (z-score),Gal6P(b1-4)GlcNAc,-0.049
same,glycan array binding signal (z-score),Gal6S(b1-3)GlcNAc,-0.09
same,glycan array binding signal (z-score),Gal6S(b1-3)GlcNAc6S,-0.094
same,glycan array binding signal (z-score),Gal6S(b1-4)Glc,-0.097
same,glycan array binding signal (z-score),Gal6S(b1-4)Glc6S,-0.084
same,glycan array binding signal (z-score),Gal6S(b1-4)GlcNAc,-0.075
same,glycan array binding signal (z-score),Gal6S(b1-4)GlcNAc6S,-0.167
same,glycan array binding signal (z-score),GalNAc(a1-3)Gal,-0.066
same,glycan array binding signal (z-score),GalNAc(a1-3)GalNAc,-0.16
same,glycan array binding signal (z-score),[8],-0.142
same,glycan array binding signal (z-score),[9],-0.114
same,glycan array binding signal (z-score),GalNAc(b1-3)Gal,-0.116
same,glycan array binding signal (z-score),[10],-0.025
same,glycan array binding signal (z-score),[11],-0.139
same,glycan array binding signal (z-score),[12],-0.138
same,glycan array binding signal (z-score),GalNAc(b1-3)GalNAc,-0.045
same,glycan array binding signal (z-score),GalNAc(b1-3)GlcNAc,-0.056
same,glycan array binding signal (z-score),GalNAc(b1-4)Gal(b1-4)Glc,-0.058
same,glycan array binding signal (z-score),GalNAc(b1-4)GlcNAc,-0.036

# From the supplement of paper PMC8728848
